# Measured values from the supplement of paper PMC8728848.
# The other results are listed elsewhere or left out.
# B1: MGL1 (Mus musculus), P49300 (protein)
# chain: MIYENLQNSRIEEKTQEPGKAPSQSFLWRILSWTHLLLFSLGLSLLLLVVVSVIGSQNSQLRRDLGTLRATLDNTTSKIKAEFQSLDSRADSFEKGISSLKVDVEDHRQELQAGRDLSQKVTSLESTVEKREQALKTDLSDLTDHVQQLRKDLKALTCQLANLKNNGSEVACCPLHWTEHEGSCYWFSESEKSWPEADKYCRLENSHLVVVNSLEEQNFLQNRLANVVSWIGLTDQNGPWRWVDGTDFEKGFKNWAPLQPDNWFGHGLGGGEDCAHITTGGPWNDDVCQRTFRWICEMKLAKES
# What was measured:
# Assay in all cases: glycan array binding signal (z-score within array); higher = stronger binding
# Conditions in all cases: glycan notation: IUPAC condensed, linker removed
# [1] = target: Kdn(a2-3)Gal(b1-4)[Fuc(a1-3)]GlcNAc
# Method in brief: (§1)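 The Consortium for Functional Glycomics database supplied 3228 glycan arrays, of which those lacking an available protein sequence were dropped. The binding signal, a within-array Z-score, was averaged across arrays of the same protein sequence and across linkers. Negative scores can be read as non-binding.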
# Kdn(a2-6)Gal(b1-4)GlcNAc = target: Kdn(a2-6)Gal(b1-4)GlcNAc
# Method in brief: as §1
# [2] = target: Man(a1-2)Man(a1-2)Man(a1-3)Man
# Method in brief: as §1
# [3] = target: Man(a1-2)Man(a1-2)Man(a1-3)[Man(a1-2)Man(a1-3)[Man(a1-2)Man(a1-6)]Man(a1-6)]Man(b1-4)GlcNAc(b1-4)GlcNAc
# Method in brief: as §1
# [4] = target: Man(a1-2)Man(a1-2)Man(a1-3)[Man(a1-2)Man(a1-6)[Man(a1-3)]Man(a1-6)]Man(b1-4)GlcNAc(b1-4)GlcNAc
# Method in brief: as §1
# [5] = target: Man(a1-2)Man(a1-2)Man(a1-6)[Man(a1-3)]Man
# Method in brief: as §1
# Man(a1-2)Man(a1-3)Man = target: Man(a1-2)Man(a1-3)Man
# Method in brief: as §1
# [6] = target: Man(a1-2)Man(a1-3)[Man(a1-2)Man(a1-6)]Man
# Method in brief: as §1
# [7] = target: Man(a1-2)Man(a1-3)[Man(a1-2)Man(a1-6)]Man(a1-6)[Man(a1-2)Man(a1-2)Man(a1-3)]Man
# Method in brief: as §1
# [8] = target: Man(a1-2)Man(a1-3)[Man(a1-2)Man(a1-6)]Man(a1-6)[Man(a1-2)Man(a1-2)Man(a1-3)]Man(b1-4)GlcNAc(b1-4)GlcNAc
# Method in brief: as §1
# [9] = target: Man(a1-2)Man(a1-3)[Man(a1-3)[Man(a1-6)]Man(a1-6)]Man(b1-4)GlcNAc(b1-4)GlcNAc
# Method in brief: as §1
# [10] = target: Man(a1-2)Man(a1-3)[Man(a1-6)]Man(a1-6)[Man(a1-2)Man(a1-3)]Man(b1-4)GlcNAc(b1-4)GlcNAc
# Method in brief: as §1
# [11] = target: Man(a1-2)Man(a1-6)[Man(a1-3)]Man(a1-6)[Man(a1-2)Man(a1-2)Man(a1-3)]Man
# Method in brief: as §1
# [12] = target: Man(a1-2)Man(a1-6)[Man(a1-3)]Man(a1-6)[Man(a1-2)Man(a1-2)Man(a1-3)]Man(b1-4)GlcNAc(b1-4)GlcNAc
# Method in brief: as §1
# Man(a1-3)[Man(a1-6)]Man = target: Man(a1-3)[Man(a1-6)]Man
# Method in brief: as §1
# [13] = target: Man(a1-3)[Man(a1-6)]Man(a1-6)[Man(a1-2)Man(a1-3)]Man(b1-4)GlcNAc(b1-4)GlcNAc
# Method in brief: as §1
# [14] = target: Man(a1-3)[Man(a1-6)]Man(a1-6)[Man(a1-3)]Man
# Method in brief: as §1
# [15] = target: Man(a1-3)[Man(a1-6)]Man(a1-6)[Man(a1-3)]Man(b1-4)GlcNAc(b1-4)GlcNAc
# Method in brief: as §1
# [16] = target: Man(a1-3)[Man(a1-6)]Man(b1-4)GlcNAc(b1-4)GlcNAc
# Method in brief: as §1
# [17] = target: Man(a1-3)[Man(a1-6)]Man(b1-4)GlcNAc(b1-4)[Fuc(a1-6)]GlcNAc
# Method in brief: as §1
# Man(a1-6)Man = target: Man(a1-6)Man
# Method in brief: as §1
# Man(b1-4)GlcNAc = target: Man(b1-4)GlcNAc
# Method in brief: as §1
# MurNAc(b1-4)GlcNAc = target: MurNAc(b1-4)GlcNAc
# Method in brief: as §1
# Neu5Ac(a2-3)Gal = target: Neu5Ac(a2-3)Gal
# Method in brief: as §1
# [18] = target: Neu5Ac(a2-3)Gal(b1-3)GalNAc
# Method in brief: as §1
# [19] = target: Neu5Ac(a2-3)Gal(b1-3)GalNAc(b1-3)Gal(a1-4)Gal(b1-4)Glc
# Method in brief: as §1
# [20] = target: Neu5Ac(a2-3)Gal(b1-3)GalNAc(b1-4)[Neu5Ac(a2-3)]Gal(b1-4)Glc
# Method in brief: as §1
# [21] = target: Neu5Ac(a2-3)Gal(b1-3)GalNAc(b1-4)[Neu5Ac(a2-8)Neu5Ac(a2-3)]Gal(b1-4)Glc
# Method in brief: as §1
# [22] = target: Neu5Ac(a2-3)Gal(b1-3)GalNAc6S
# Method in brief: as §1
# [23] = target: Neu5Ac(a2-3)Gal(b1-3)GlcNAc
# Method in brief: as §1
# [24] = target: Neu5Ac(a2-3)Gal(b1-3)GlcNAc(b1-2)Man
# Method in brief: as §1
# [25] = target: Neu5Ac(a2-3)Gal(b1-3)GlcNAc(b1-2)Man(a1-3)[GlcNAc(b1-4)][Neu5Ac(a2-3)Gal(b1-3)GlcNAc(b1-2)Man(a1-6)]Man(b1-4)GlcNAc(b1-4)GlcNAc
# Method in brief: as §1
# [26] = target: Neu5Ac(a2-3)Gal(b1-3)GlcNAc(b1-2)Man(a1-3)[Neu5Ac(a2-3)Gal(b1-3)GlcNAc(b1-2)Man(a1-6)]Man(b1-4)GlcNAc(b1-4)GlcNAc
# Method in brief: as §1
# [27] = target: Neu5Ac(a2-3)Gal(b1-3)GlcNAc(b1-3)Gal(b1-3)GlcNAc
# Method in brief: as §1
# [28] = target: Neu5Ac(a2-3)Gal(b1-3)GlcNAc(b1-3)Gal(b1-4)GlcNAc
# Method in brief: as §1
# [29] = target: Neu5Ac(a2-3)Gal(b1-3)GlcNAc(b1-3)GalNAc
# Method in brief: as §1
# [30] = target: Neu5Ac(a2-3)Gal(b1-3)GlcNAc(b1-4)Gal(b1-4)Glc
# Method in brief: as §1
# [31] = target: Neu5Ac(a2-3)Gal(b1-3)GlcNAc(b1-6)GalNAc
# Method in brief: as §1
binder,measurement,setting,value
B1,glycan array binding signal (z-score),[1],0.025
same,glycan array binding signal (z-score),Kdn(a2-6)Gal(b1-4)GlcNAc,-1.03
same,glycan array binding signal (z-score),[2],-0.171
same,glycan array binding signal (z-score),[3],-0.167
same,glycan array binding signal (z-score),[4],-0.136
same,glycan array binding signal (z-score),[5],-0.582
same,glycan array binding signal (z-score),Man(a1-2)Man(a1-3)Man,-0.539
same,glycan array binding signal (z-score),[6],-0.06
same,glycan array binding signal (z-score),[7],-0.381
same,glycan array binding signal (z-score),[8],-0.432
same,glycan array binding signal (z-score),[9],-0.147
same,glycan array binding signal (z-score),[10],0.311
same,glycan array binding signal (z-score),[11],-0.253
same,glycan array binding signal (z-score),[12],-0.875
same,glycan array binding signal (z-score),Man(a1-3)[Man(a1-6)]Man,-0.167
same,glycan array binding signal (z-score),[13],-0.175
same,glycan array binding signal (z-score),[14],0.117
same,glycan array binding signal (z-score),[15],-0.523
same,glycan array binding signal (z-score),[16],-0.089
same,glycan array binding signal (z-score),[17],-0.296
same,glycan array binding signal (z-score),Man(a1-6)Man,-0.85
same,glycan array binding signal (z-score),Man(b1-4)GlcNAc,-0.513
same,glycan array binding signal (z-score),MurNAc(b1-4)GlcNAc,-0.629
same,glycan array binding signal (z-score),Neu5Ac(a2-3)Gal,-0.346
same,glycan array binding signal (z-score),[18],-0.075
same,glycan array binding signal (z-score),[19],0.175
same,glycan array binding signal (z-score),[20],-0.374
same,glycan array binding signal (z-score),[21],-0.511
same,glycan array binding signal (z-score),[22],-0.6
same,glycan array binding signal (z-score),[23],-0.296
same,glycan array binding signal (z-score),[24],-0.317
same,glycan array binding signal (z-score),[25],-0.599
same,glycan array binding signal (z-score),[26],0.016
same,glycan array binding signal (z-score),[27],-0.442
same,glycan array binding signal (z-score),[28],-0.481
same,glycan array binding signal (z-score),[29],-0.111
same,glycan array binding signal (z-score),[30],-0.312
same,glycan array binding signal (z-score),[31],-0.36
